Data taken from PubChem BioAssay AID1259400 (National Center for Advancing Translational Sciences (NCATS), 2018).
Values joined by “and” are separate entries in the source; they are usually repeats but may differ in a detail not shown here. Equal values may be shown once. The whole screen tested about 350,000 compounds, of which about 2,100 (0.6%) were called active. Inconclusive means that the source gave no clear call. Such entries were picked first, then a sample of the others.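 How the source made its calls: active means activity change of -60% or lower, but not beyond a set lower limit; inconclusive means change between -60% and -40%, or beyond the set limit; inactive means change above -40%.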

target: Relaxin receptor 1 (Homo sapiens) (UniProt Q9HBX9); assay: qHTS Assay for Antagonists of the Relaxin Receptor RXFP1; details: HEK293-RXFP1, relaxin-stimulated cAMP HTRF, 30 min; at 57.5 µM; active compounds read low
Chain of UniProt Q9HBX9 (Q9HBX9 whole entry, looked up): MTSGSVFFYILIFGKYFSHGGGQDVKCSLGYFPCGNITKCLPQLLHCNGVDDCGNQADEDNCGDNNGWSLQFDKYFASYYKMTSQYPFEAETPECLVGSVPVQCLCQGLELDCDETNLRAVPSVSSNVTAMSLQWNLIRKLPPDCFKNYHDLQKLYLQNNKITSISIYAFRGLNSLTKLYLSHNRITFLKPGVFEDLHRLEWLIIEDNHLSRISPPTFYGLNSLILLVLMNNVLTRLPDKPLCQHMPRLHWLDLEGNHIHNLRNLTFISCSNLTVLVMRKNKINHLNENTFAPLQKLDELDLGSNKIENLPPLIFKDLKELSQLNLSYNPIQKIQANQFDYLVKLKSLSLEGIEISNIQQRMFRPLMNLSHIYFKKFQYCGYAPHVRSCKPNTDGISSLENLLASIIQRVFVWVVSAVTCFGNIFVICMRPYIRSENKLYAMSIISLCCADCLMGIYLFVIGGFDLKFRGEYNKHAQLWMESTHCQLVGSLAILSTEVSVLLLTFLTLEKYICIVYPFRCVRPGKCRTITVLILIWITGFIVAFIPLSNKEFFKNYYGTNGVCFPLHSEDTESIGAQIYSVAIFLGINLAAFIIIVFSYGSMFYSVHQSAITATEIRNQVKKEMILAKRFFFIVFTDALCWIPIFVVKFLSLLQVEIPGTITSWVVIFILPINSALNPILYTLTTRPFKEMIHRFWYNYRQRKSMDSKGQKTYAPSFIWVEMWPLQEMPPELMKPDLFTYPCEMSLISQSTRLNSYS
On the % scale 0 is the no-effect control and ±100 the full control effect.

| Structure (SMILES) | activity change, negative = inhibition |
| --- | --- |
| CCOc1ccc(CC(=O)NCCc2csc(-c3ccc(C)cc3)n2)cc1 | inactive: -35.3% |
| O=C(Nc1cccc(NC(=O)c2cccs2)c1)c1ccc(Br)cc1 | active: -70.7% |
| COc1ccc(-c2csc(Nc3ccccn3)n2)cc1OC | active: -83.6% |
| CCOC(=O)c1ccc(NC(=O)CSc2c(C(C)C)cnc3c2c(=O)n(C)c(=O)n3C)cc1 | inactive: 7.42% |
| S=c1[nH]nc(C2CC2)n1Cc1ccco1 | inactive: -10.3% |
| O=C(Nc1nc2ccccc2[nH]1)c1ccc(Cl)cc1 | inactive: -4.74% |
| COc1ccc(CCNCc2c(C(=O)O)c(C)n(Cc3c(F)cccc3Cl)c2C)cc1OC | inactive: -8.69% |
| CC(=O)Nc1cc(C(=O)NCc2ccccc2Cl)ccc1Sc1ccc(F)cc1 | inconclusive: -42.9% |
| CC(N=c1ccccn1C(=O)Nc1ccc(Cl)cc1)c1ccco1 (stereo unspecified) | inactive: -9.86% |
| O=C(Nc1cc(Cl)ccn1)C1(c2ccccc2)CC1(Cl)Cl (stereo unspecified) | inconclusive: -53.6% |
| COc1ccc2c(c1)c(=O)c(S(=O)(=O)c1ccc(Cl)cc1)cn2C | inactive: -7.57% |
| COc1cccc(C=NCCCN=Cc2cccc(OC)c2O)c1O | inconclusive: -51.7% |
| CC(C)COC(=O)CNc1n[nH]c(=S)[nH]c1=O | inconclusive: -54.1% |
| Cc1nc2ccccc2nc1N/N=C/c1ccc(O)cc1O | inconclusive: -43.7% |
| COc1cc(NC(=O)c2ccc(-c3nc(COc4ccccc4)c(C)o3)cc2)cc(OC)c1 | inactive: -1.13% |
| COc1ccc2c(c1)c1c(c(=O)n(-c3ccc(C)cc3)c(=O)n1CC(=O)N1CCCC1)n2C | inactive: 2.64% |
| COc1ccc(C(=O)C2CCCN(C3Cc4ccccc4C3)C2)c(OC)c1 (stereo unspecified) | active: -64.7% |
| O=C(CN1CCN(c2ccc(Cl)cc2)CC1)Nc1ccc(Cl)c(C(F)(F)F)c1 | inconclusive: -47% |
| Cc1ccc(C)c(N2CCN(C(=O)CCC(=O)Nc3nnc(C(F)(F)F)s3)CC2)c1 | inconclusive: -46.1% |
| Oc1cccc(-c2c3nc(c(-c4cccc(O)c4)c4ccc([nH]4)c(-c4cccc(O)c4)c4nc(c(-c5cccc(O)c5)c5ccc2[nH]5)CC4)C=C3)c1 | active: -100% |
| Cc1ccc(-n2c3nc(=O)[nH]c(=O)c-3cc3cc([N+](=O)[O-])ccc32)cc1C | inconclusive: -42.6% |
| CCCC(=O)N(CCN1CCOCC1)c1nc2c(C)ccc(C)c2s1 | inconclusive: -47.1% |

| Structure (SMILES) | activity change, negative = inhibition |
| --- | --- |
| O=[N+]([O-])c1ccc2[nH]c(O)c(N=NC(=S)Nc3cccnc3)c2c1 | inconclusive: -49.4% |
| O=c1c2ccccc2nc(/C=C/c2ccc(O)cc2)n1CCc1ccccc1 | inconclusive: -45.1% |
| CC(=O)N1CCC(=NNC(=O)c2cc3ccccc3cc2O)CC1 | active: -92.9% |
| COc1ccc2nc(NC(=O)c3nc(S(=O)(=O)Cc4ccccc4F)ncc3Cl)sc2c1 | active: -82.8% |
| CCOc1cc(N2CCOCC2)c(OCC)cc1NC(=O)C(NC(=O)c1c(F)cccc1F)C(C)C (stereo unspecified) | inactive: -1.33% |
| Cc1ccsc1/C=N/NC(=O)c1ccncc1 | inconclusive: -41.5% |
| CCCCn1c(O)c(/C=C2\C=NN=C2c2ccccc2)sc1=S | inactive: -21.5% |
| CCc1nnc(NC(=O)c2ccc(S(=O)(=O)N3CCCc4ccccc43)cc2)o1 | inactive: -10.5% |
| CC(=O)Nc1ccc(C=CC=Cc2cccc([N+](=O)[O-])c2)cc1 | active: -60.6% |
| CCOC(=O)C1=C(N)OC2=C(C(=O)CC(C)(C)C2)C1c1ccc(C)s1 (stereo unspecified) | active: -61.6% |
| CCn1nc(C)cc1C(=O)N1CCCC(C(=O)c2ccc(Oc3ccccc3)cc2)C1 (stereo unspecified) | inconclusive: -44.4% |
| CC1C/C(=C/c2ccccn2)C(=O)/C(=C/c2ccccn2)C1 (stereo unspecified) | active: -74.5% |
| O=C1C(NS(=O)(=O)c2cccs2)=C(N2CCN(c3cccc(C(F)(F)F)c3)CC2)C(=O)c2ccccc21 | inconclusive: -45.2% |
| N#CC1=C(N)SC(N)=C(C#N)C1c1cccc(Oc2ccccc2)c1 | inactive: -4.4% |
| Cc1ccc(C)c(N2CCN(C(=O)CCCn3c(=S)[nH]c4cc5c(cc4c3=O)OCO5)CC2)c1 | active: -102% |
| COc1cc(C(=O)OC2CCOC2=O)cc(Cl)c1OC (stereo unspecified) | inconclusive: -44.9% |
| CCC(C)NCCCOc1ccc(C)cc1OC (stereo unspecified) | inconclusive: -44.1% |
| CCCC(=O)NC(c1ccc(C(C)C)cc1)c1ccc2cccnc2c1O (stereo unspecified) | inconclusive: -40.1% |
| COc1ccc(CN2CCC(N(CCc3ccccc3)Cc3ccccc3)CC2)c(OC)c1 | inconclusive: -53.4% |
| COc1ccc(C)cc1NC(=O)C/C(C)=N/NC(=O)Cc1cccc2ccccc12 | inconclusive: -43.5% |
| O=C(Cn1cc2c(n1)CCCC2)Nc1cc(C(F)(F)F)ccc1Cl | inactive: -5.68% |
| Oc1ccc(N=C/C=C/c2cccc(Br)c2)cc1-c1nc2ccccc2s1 | inconclusive: -46.5% |

| Structure (SMILES) | activity change, negative = inhibition |
| --- | --- |
| COc1ccc(-n2cc(CNC(C)c3ccncn3)c(-c3cccc(F)c3)n2)cc1 (stereo unspecified) | inconclusive: -57.3% |
| Cc1ccc(NC(=O)CSc2cn(CC(=O)N3CCOCC3)c3ccccc23)cc1Cl | inactive: -29.6% |
| COc1ccc(NC(=O)Cn2c(SCc3ccc(F)cc3)nc3cccnc32)c(OC)c1 | inactive: 6.37% |
| CCOC(=O)Nc1ccc2c(c1)C(=NO)c1ccccc1-2 | inconclusive: -51.2% |
| COc1ccc(-c2ocnc2C(=O)Nc2ccccc2N2CCCCC2)cc1 | inactive: -3.92% |
| COc1ccc(CCNC(=O)c2ccc3c(c2)CCN3S(=O)(=O)c2ccccc2)cc1OC | inactive: -11.2% |
| CCOC(=O)COc1ccc(/C=C/[N+](=O)[O-])c(OCC(=O)OCC)c1 | active: -68.7% |
| COCCNC(=O)c1ccc(-n2c(-c3ccccc3)cc3c2CCC(C)C3)cc1 (stereo unspecified) | active: -70.7% |
| CCCCOC(=O)c1ccc(OC(=O)c2sc3ncn(Cc4ccccc4Cl)c(=O)c3c2C)cc1 | inactive: 2.85% |
| CCc1ccc(NC(=O)C2CCCN(S(=O)(=O)c3cnc[nH]3)C2)cc1 (stereo unspecified) | active: -116% |
| CCCNC(=O)c1nnsc1S(=O)c1ccc(Cl)cc1 (stereo unspecified) | active: -71.2% |
| Fc1ccccc1-c1n[nH]c(=S)n1/N=C/c1c[nH]c2ccccc12 | active: -109% |
| CCOc1cc(CNCCc2ccc(S(N)(=O)=O)cc2)ccc1OCc1ccc(Cl)cc1 | inconclusive: -48.7% |
| Cc1nn(C)c(C(=O)N/N=C/c2cccc3ccccc23)c1Cl | inactive: -10% |
| N#Cc1c(Cl)nsc1NN | inconclusive: -40.5% |
| Cc1cc(C)cc(NC(=O)CN2CCc3cc4c(cc3C2C)OCCCO4)c1 (stereo unspecified) | active: -62.2% |
| O=C(CCS(=O)(=O)c1nc(-c2ccc3c(c2)OCO3)cc(C(F)(F)F)n1)Nc1ccc(F)c(Cl)c1 | inconclusive: -53.3% |
| O=C1/C(=C\c2ccccn2)SC(=S)N1c1ccc(S(=O)(=O)Nc2nccs2)cc1 | active: -80.7% |
| COc1ccccc1/C=N/NC(=O)c1nnn(-c2nonc2N)c1-c1cccs1 | inconclusive: -45.6% |
| COc1ccc(-c2cccc(C(=O)Nc3ccccc3C)c2)cc1 | inactive: 2.55% |
| Fc1ccc(C(c2ccc(F)cc2)N2CCN(C/C=C/c3ccccc3)CC2)cc1 | active: -63.7% |
| COc1ccc(/C=C2/C(=O)N(c3ccccc3)N=C2C)cc1Br | inconclusive: -54.7% |

| Structure (SMILES) | activity change, negative = inhibition |
| --- | --- |
| O=C(Cn1cc(SCc2ccccc2F)c2ccccc21)N1CCCC1 | inactive: -28.7% |
| Cc1ccc(NC(=O)CCCn2c(=S)[nH]c3ccsc3c2=O)cc1C | inconclusive: -49.5% |
| CN(C)c1ccc(C2NC(=O)c3ccccc3N2)cc1 (stereo unspecified) | inactive: -22.2% |
| CCC1(c2ccc(F)cc2)NC(=O)N(CC(=O)NCC(=O)Nc2cccc(C)c2C)C1=O (stereo unspecified) | active: -79.3% |
| CCCC(C)C(=O)Nc1nnc(CCc2ccccc2)s1 (stereo unspecified) | inconclusive: -49.2% |
| CN[C@@H]1[C@@H](O)[C@@H](O[C@@H]2[C@H](O)[C@H](O[C@H]3OC(CN)=CC[C@H]3N)[C@@H](N)C[C@H]2N)OCC1(C)O (stereo partly specified) | inactive: -9.15% |
| COc1ccc(CNC(=O)c2cc3oc4ccccc4c3n2C)cc1OC | inconclusive: -44.3% |
| COc1ccc(NC(=O)CN(C)CC(=O)N2CCCCCC2)cc1 | active: -89.7% |
| O=C(Nc1ccc2nc(SCC(=O)N3CCOCC3)sc2c1)c1cccc(F)c1 | active: -86.2% |
| Nc1ncc(CCN2CCOCC2)c(-c2ccc(F)cc2)n1 | inactive: 8.39% |
| c1ccc(CN2CCC3(CC2)Nc2ccccc2CO3)cc1 | inactive: -1.23% |
| O=C(Nc1nc(-c2ccco2)c(-c2ccco2)s1)C1CC(=O)N(c2ccc3c(c2)OCCO3)C1 (stereo unspecified) | inconclusive: -45% |
| CCCc1noc2c1C(c1cc(Br)ccc1F)C(C#N)=C(N)N2 (stereo unspecified) | inconclusive: -47.2% |
| Cc1ccc(C(=O)/C=C\C(=O)c2ccc(C)cc2)cc1 | inconclusive: -46.2% |
| O=C(c1ccc2c(c1)OCCO2)C1CCN(C(=O)c2ccc(F)cc2)CC1 | inactive: -2.82% |
| O/C(=C\c1nc2ccccc2nc1/C=C(\O)c1ccccc1)c1ccccc1 | active: -112% |
| Cc1cccc(CN2C(=O)c3ccccc3Sc3ccc(C(=O)NCCCN4CCOCC4)cc32)c1 | inconclusive: -42.6% and inconclusive: -42.1% |
| CCC(=O)NC(c1cccs1)c1cc([N+](=O)[O-])c2cccnc2c1O (stereo unspecified) | inconclusive: -49.2% |
| Cc1ccc(-c2nc(CS(=O)(=O)CC(=O)N3CCN(c4ccccc4)CC3)c(C)o2)cc1 | inconclusive: -41.2% |
| O=C(NC(=S)NN1CCCCC1c1cccnc1)c1ccc(Cl)cc1Cl (stereo unspecified) | inconclusive: -52.9% |
